The supplement of paper PMC12645437, “Orthogonal IMiD-Degron Pairs Induce Selective Protein Degradation in Cells” (ACS Chemical Biology, 2025)
The other results are listed elsewhere or left out.

Target: no compound (DMSO)
Experiment: log2 fold change of degron read counts, EGFP-low vs EGFP+ sorted cells; higher = lower degron-EGFP level without compound (poor expression or instability)
Settings: compound: DMSO control; 18 h
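Also: jurkat cells carrying a lentiviral library of mutant zinc finger degrons fused to EGFP plus mCherry, mCherry+ cells FACS sorted, degron abundance counted by next-generation sequencing.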

| Sequence | log2 fold change of degron read counts |
| --- | --- |
| FTCEICGRHFTQKGNLLRHIKL | -1.5 |
| LVCEICGFSCTQKGNLLRHIKL | -1.1 |
| FTCPICGHQFTQKGNLLRHIKL | 2.71 |
| FCCEICGRPFTQKGNLLRHIKL | -0.766 |
| FQCNQCGRVFTQKGNLLRHIKL | -0.602 |
| FYCPICGHWFTQKGNLLRHIKL | 1.4 |
| FCCDVCGARFTQKGNLLRHIKL | -1.26 |
| FNCEICGHLFTQKGNLLRHIKL | -0.0212 |
| FDCPQCGAIFTQKGNLLRHIKL | -0.6 |
| FECNQCGHTFTQKGNLLRHIKL | -1.41 |
| FACSVCGHAFTQKGNLLRHIKL | -0.745 |
| FCCPVCGAEFTQKGNLLRHIKL | -0.775 |
| FMCEVCGAGFTQKGNLLRHIKL | -0.999 |
| FHCDVCGAIFTQKGNLLRHIKL | -1.5 |
| FRCNQCGHDFTQKGNLLRHIKL | -0.988 |
| FDCEICGANFTQKGNLLRHIKL | -1.89 |
| FRCPQCGAVFTQKGNLLRHIKL | -0.903 |
| LHCPICGFPCTQKGNLLRHIKL | 1.54 |
| FMCPICGRIFTQKGNLLRHIKL | 0.731 |
| LRCPICGFYCTQKGNLLRHIKL | 1.95 |
| FSCEQCGAKFTQKGNLLRHIKL | -1.32 |
| LDCNQCGFVCTQKGNLLRHIKL | 0.755 |
| LWCEICGFNCTQKGNLLRHIKL | 1.63 |
| FQCNQCGHCFTQKGNLLRHIKL | -0.521 |
| FNCDQCGAYFTQKGNLLRHIKL | -0.73 |

| Sequence | log2 fold change of degron read counts |
| --- | --- |
| FNCNVCGARFTQKGNLLRHIKL | -0.565 |
| FGCNQCGHIFTQKGNLLRHIKL | 1.38 |
| LFCNQCGFICTQKGNLLRHIKL | 2.06 |
| FQCNQCGHEFTQKGNLLRHIKL | -1.52 |
| FICDQCGALFTQKGNLLRHIKL | -1.11 |
| FQCEVCGAGFTQKGNLLRHIKL | -1.97 |
| FECPICGAPFTQKGNLLRHIKL | -0.173 |
| FYCEVCGANFTQKGNLLRHIKL | -0.952 |
| FFCEICGAEFTQKGNLLRHIKL | -1.5 |
| FGCEICGREFTQKGNLLRHIKL | -1.36 |
| LKCEICGFWCTQKGNLLRHIKL | 0.392 |
| FNCEVCGATFTQKGNLLRHIKL | -2.01 |
| FRCPICGHFFTQKGNLLRHIKL | 0.344 |
| FECPICGHVFTQKGNLLRHIKL | -1.03 |
| FECEICGHIFTQKGNLLRHIKL | -1.82 |
| FWCPICGAYFTQKGNLLRHIKL | 1.97 |
| FECPVCGAWFTQKGNLLRHIKL | -0.0501 |
| FLCDICGAWFTQKGNLLRHIKL | -0.00669 |
| FDCEICGHHFTQKGNLLRHIKL | -0.701 |
| LSCPICGFICTQKGNLLRHIKL | 1.04 |
| FFCEICGHDFTQKGNLLRHIKL | -0.975 |
| FRCPQCGANFTQKGNLLRHIKL | -0.911 |
| LWCEICGFMCTQKGNLLRHIKL | 1.9 |
| LICPICGFRCTQKGNLLRHIKL | 0.666 |
| FICEQCGAAFTQKGNLLRHIKL | -1.61 |
